Test results published in the antibiotic and cytotoxicity screens of Wong et al. (2023).
The other results are listed elsewhere or left out.

Key:
HSkMC = human skeletal muscle cells; experiment: cytotoxicity call (relative viability < 0.9); details: 10 µM
HepG2 = experiment: cytotoxicity call (relative viability < 0.9); details: 10 µM
S. aureus RN4220 = experiment: growth inhibition call (relative growth <= 0.2); details: 50 µM

Structure (SMILES) | cytotoxicity call (HSkMC) | cytotoxicity call (HepG2) | growth inhibition call (S. aureus RN4220)
COc1cccc(-c2cnc3c(c2)C(=O)N([C@H](C)CO)C[C@H](C)[C@H](CN(C)C(=O)Nc2cccc4ccccc24)O3)c1 | inactive | inactive | inactive
C[C@H]1CCCCO[C@@H](CN(C)S(=O)(=O)c2cn(C)cn2)[C@@H](C)CN([C@@H](C)CO)C(=O)c2cc(NC(=O)Nc3ccc(C(F)(F)F)cc3)ccc2O1 | active | active | inactive
CCCNC(=O)[C@@]1(Sc2ccc(C)cc2)CC(=O)N(Cc2ccccc2C(F)(F)F)[C@@H]1c1ccc(CO)cc1I | inactive | inactive | inactive
COc1ccc(S(=O)(=O)Nc2ccc3c(c2)C(=O)N([C@H](C)CO)C[C@H](C)[C@H](CN(C)Cc2ccc(C(F)(F)F)cc2)OCCCC[C@H](C)O3)cc1 | active | inactive | inactive
Cc1noc(C)c1NC(=O)N(C)C[C@H]1Oc2ccc(NC(=O)CCCN(C)C)cc2CC(=O)N([C@@H](C)CO)C[C@@H]1C | inactive | inactive | inactive
Cc1ccc(S(=O)(=O)Nc2ccc3c(c2)C(=O)N([C@H](C)CO)C[C@@H](C)[C@H](CN(C)Cc2ccc4c(c2)OCO4)OCCCC[C@@H](C)O3)cc1 | inactive | inactive | inactive
Cc1noc(C)c1S(=O)(=O)Nc1ccc2c(c1)C(=O)N([C@@H](C)CO)C[C@H](C)[C@H](CN(C)S(C)(=O)=O)O2 | inactive | inactive | inactive
C[C@H](CO)N1C[C@H](C)[C@H](CN(C)C(=O)CN2CCOCC2)Oc2ncc(/C=C/c3ccccc3)cc2C1=O | inactive | inactive | inactive
C[C@@H]1CCCCO[C@@H](CN(C)C(=O)Nc2ccc(C(F)(F)F)cc2)[C@@H](C)CN([C@H](C)CO)C(=O)c2cc(NS(C)(=O)=O)ccc2O1 | inactive | inactive | inactive
COC(=O)[C@H]1c2cc3c(c(O)c2[C@@H](O[C@@H]2O[C@H](C)[C@H](OC)[C@](C)(OC)[C@@H]2OC)C[C@@]1(C)O)C(=O)c1c(O)cc2c(c1C3=O)O[C@H]1O[C@@]2(C)[C@@H](O)[C@H](N(C)C)[C@@H]1O | inactive | active | active
Cc1nccn1CC1CCc2c(c3ccccc3n2C)C1=O.Cl (configuration not stated) | inactive | inactive | inactive
C[C@@H]1CCCCO[C@@H](CN(C)C(=O)c2ccccc2)[C@H](C)CN([C@@H](C)CO)C(=O)c2cc(NS(=O)(=O)c3cccs3)ccc2O1 | inactive | inactive | inactive
COc1ccc(S(=O)(=O)Nc2ccc3c(c2)C(=O)N([C@H](C)CO)C[C@H](C)[C@H](CN(C)C(=O)Nc2cccc4ccccc24)OCCCC[C@H](C)O3)cc1 | inactive | inactive | inactive
CCOC(=O)[C@@H](C)n1ncn2cccc2c1=O | inactive | inactive | inactive
COCC#Cc1cnc2c(c1)C(=O)N([C@H](C)CO)C[C@H](C)[C@H](CN(C)C(=O)Nc1ccc(OC)cc1)O2 | inactive | inactive | inactive
COCC#Cc1ccc2c(c1)O[C@@H](CN(C)S(=O)(=O)c1cccc(F)c1)[C@@H](C)CN([C@@H](C)CO)S2(=O)=O | inactive | inactive | inactive
O=C(O)c1ccnc(N2CC(O)(c3ccc(OCc4c(-c5c(Cl)cccc5Cl)noc4C4CC4)cc3Cl)C2)c1 | inactive | inactive | inactive
C[C@H](CO)N1C[C@H](C)[C@H](CN(C)C(=O)CCC(F)(F)F)OCCCC[C@H](C)Oc2ccc(NC(=O)Nc3ccccc3)cc2C1=O | inactive | inactive | inactive
O=c1[nH]cn[nH]1 | inactive | inactive | inactive
C[C@@H]1CN([C@H](C)CO)C(=O)Cc2cc(NC(=O)c3ccncc3)ccc2O[C@H]1CN(C)S(=O)(=O)c1cccs1 | inactive | inactive | inactive
Cc1noc(C)c1S(=O)(=O)Nc1ccc2c(c1)C(=O)N([C@@H](C)CO)C[C@@H](C)[C@@H](CN(C)Cc1ccccc1)OCCCC[C@H](C)O2 | inactive | inactive | inactive
C[C@@H]1CCCCO[C@@H](CN(C)Cc2ccc(Cl)c(Cl)c2)[C@@H](C)CN([C@H](C)CO)C(=O)c2cc(NS(=O)(=O)c3cn(C)cn3)ccc2O1 | inactive | inactive | inactive
CC1=CC(=O)C2C(C)(C)CCCC2(C)C1(O)CCc1ccoc1 (configuration not stated) | inactive | inactive | inactive
Cc1noc(C)c1S(=O)(=O)Nc1ccc2c(c1)C(=O)N([C@H](C)CO)C[C@@H](C)[C@@H](CN(C)C(=O)Nc1ccccc1)O2 | inactive | inactive | inactive
